Measured values reported in PubChem BioAssay (NCI).
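96-well plates; 48 h exposure; 5 concentrations. Endpoints by linear interpolation between flanking doses. Not reached: highest tested concentration assigned. GI50 marks 50% less growth. TGI denotes the concentration required for complete inhibition of growth.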

Tested on: NCI-H322M lung
Assay: NCI anticancer screen, dose series, 48 h

| Structure (SMILES) | GI50 | TGI |
| --- | --- | --- |
| C=C(C)[C@@H]1CC[C@]2(COP(=O)(OCC)OCC)CC[C@]3(C)[C@H](CC[C@@H]4[C@@](C)(CCCN)[C@H](C(=C)C)CC[C@]43C)[C@@H]12 | 10.3 µM | 21.9 µM |
| C#C[C@]1(O)CC[C@H]2[C@@H]3CC=C4c5sc(-c6ccc([N+](=O)[O-])cc6)nc5CC[C@]4(C)[C@H]3CC[C@@]21C | 12.5 µM | 25.1 µM |
| CC(=O)Nc1ccc(-c2cn(-c3cccc(C(=O)Nc4cc(CN5CCOCC5)cc(C(F)(F)F)c4)c3)nn2)cn1 | 2 µM | 4.17 µM |
